Laboratory results published in PubChem BioAssay AID588342 (National Center for Advancing Translational Sciences (NCATS), 2011).
The whole screen tested about 360,000 compounds, of which about 25,000 (6.9%) were called active. Inconclusive means that the source gave no clear call. Such entries were picked first, then a sample of the others. Calls follow the shape of the dose curve; as a rule, active = well fitted inhibition curve with a large enough effect; inconclusive = small, poorly fitted or top-dose-only effect; inactive = flat fitted curve, though single readings scatter. Potencies beside an inconclusive call are fits to weak or partial responses and may not hold up.

target: Luciferin 4-monooxygenase (Photinus pyralis) (UniProt P08659); assay: qHTS profiling assay for firefly luciferase inhibitor/activator using purifed enzyme and Km concentrations of substrates (counterscreen for miR-21 project); details: purified FLuc, luminescence inhibition; series mostly up to 57.5 µM; activity change, negative = inhibition: at the top concentration; also: nearly all actives have a fitted effect of over 55% in size;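 as to activity change, negative = inhibition: plate controls were vehicle for no effect and reference inhibitor for full effect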
UniProt P08659, sequence (P08659 whole entry, looked up): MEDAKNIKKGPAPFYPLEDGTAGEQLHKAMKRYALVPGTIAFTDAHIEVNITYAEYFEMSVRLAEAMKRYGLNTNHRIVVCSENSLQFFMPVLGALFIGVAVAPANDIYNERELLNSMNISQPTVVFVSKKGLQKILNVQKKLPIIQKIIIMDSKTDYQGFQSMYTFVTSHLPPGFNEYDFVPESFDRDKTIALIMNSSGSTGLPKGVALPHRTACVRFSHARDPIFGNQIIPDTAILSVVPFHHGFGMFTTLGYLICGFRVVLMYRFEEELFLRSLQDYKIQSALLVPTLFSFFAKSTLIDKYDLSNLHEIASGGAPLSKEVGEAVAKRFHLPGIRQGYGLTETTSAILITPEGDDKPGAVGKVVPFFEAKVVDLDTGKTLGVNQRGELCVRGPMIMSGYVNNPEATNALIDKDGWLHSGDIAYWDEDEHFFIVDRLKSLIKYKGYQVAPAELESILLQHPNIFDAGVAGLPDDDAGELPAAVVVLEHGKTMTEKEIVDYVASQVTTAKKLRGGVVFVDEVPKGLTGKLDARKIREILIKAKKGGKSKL
How it was run: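 Purified P. pyralis luciferase (10nM final) with 10uM D-luciferin and 10uM ATP (Km levels) in 50mM Tris acetate pH 7.5, 10mM Mg acetate, 0.01% Tween-20, 0.05% BSA; qHTS 6-point titration, ~60 µM downward; luminescence read.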
Potency is read from the fitted curve at half-maximal effect; tags tell the direction and shape of the fitted curve.

Row | SMILES | Potency | activity change, negative = inhibition
1 | CCCNC(=O)Nc1ccc2c(c1)nc(C)n2C | inconclusive: 21.3 µM [inhibitor, single point] | 
2 | CC1(C)Cc2c(cnn2-c2ccc(F)cc2)C(NC(=O)CCn2cncn2)C1 (stereo unspecified) | inconclusive: 26.9 µM [inhibitor, partial curve, poor fit] | 
3 | CCCNC(=O)C(Cc1ccc(I)cc1)NC(=O)c1ccc2ccccc2n1 (stereo unspecified) |  | inactive: 4.71%
4 | CCOc1ccccc1NC(=O)NNC(=O)c1ccc2ccccc2c1 |  | inactive: -4.46%
5 | C=CCCC(=O)Nc1nc(C)c(-c2csc(Nc3ccc(Cl)cc3)n2)s1 | inconclusive: 26.9 µM [inhibitor, single point] | 
6 | Cc1cccc(/N=C/c2c(C)[nH]n(-c3ccccc3)c2=O)n1 | inconclusive: 26.9 µM [inhibitor, partial curve, poor fit] | 
7 | C=CCn1cccc(C(=O)Nc2ccc(OC)c(OC)c2)c1=O | inconclusive: 37.9 µM [inhibitor, partial curve, poor fit] | 
8 | Cc1cccc(CNC(=O)C2CCN(c3nc4ccc(Cl)cc4[nH]3)CC2)c1 | inconclusive: 12 µM [inhibitor, partial curve, poor fit] | 
9 | COc1ccc2nc(/C=N/NC(=O)[C@H](CCSC)NC(=O)OC(C)(C)C)ccc2c1 | inconclusive: 37.9 µM [inhibitor, partial curve, poor fit] | 
10 | CC1S/C(=N/N=C/c2cccs2)NC1=O (stereo unspecified) | inconclusive: 23.9 µM [inhibitor, partial curve] | 
11 | Cc1ccccc1NC(=O)c1cnc(Nc2nc3ccccc3s2)nc1C |  | inactive: -2.5%
12 | CCOCCOC(=O)COc1ccc(N2C(=O)c3ccccc3C2=O)cc1 | active: 19 µM | 
13 | COc1ccccc1C(=O)NCCC(=O)NCC(c1ccco1)N1CCCC1 (stereo unspecified) |  | inactive: 6.69%
14 | CCOC(=O)c1ccc(NC(=O)c2ccco2)cc1 | active: 10.7 µM | 
15 | O=C(CCc1ccc(S(=O)(=O)N2CCOCC2)cc1)OCc1nc2ccccc2s1 | active: 21.3 µM | 
16 | Cn1c(-c2cc3ccccc3oc2=O)nc2ccccc21 | active: 21.3 µM | 
17 | Cc1ccc(C)c(N2CCN(C(=O)Cn3nc(Cc4cccnc4)c4ccccc4c3=O)CC2)c1 |  | inactive: -15.5%
18 | NC(=O)c1sc2nc(-c3cccnc3)ccc2c1N | inconclusive: 37.9 µM [inhibitor, single point] | 
19 | COc1ccc2oc(=O)c(C(=O)Nc3ccccc3C)cc2c1 | active: 1.69 µM | 
20 | Cn1c(=O)c(C(=O)Nc2ccccc2S(N)(=O)=O)c(O)c2ccccc21 | inconclusive: 30.1 µM [inhibitor, partial curve, poor fit] | 
21 | Cc1nn(C(C)C(=O)NCc2cccc(F)c2)c(=O)c2c1sc1ccccc12 (stereo unspecified) | active: 10.7 µM | 
22 | O=C(COC(=O)COc1ccc2c(c1)CCC2)Nc1ccccc1 | inconclusive: 37.9 µM [inhibitor, partial curve, poor fit] | 
23 | CN(C(=O)c1ccco1)c1nc(-c2ccccc2)cs1 | active: 5.36 µM | 

Row | SMILES | Potency | activity change, negative = inhibition
24 | CCc1nnc(N2C(=O)c3ccccc3C2(O)c2ccccc2)s1 (stereo unspecified) |  | inactive: -2.47%
25 | CC(=O)Nc1ccc(-c2csc(NCc3ccccc3)n2)cc1 | active: 19 µM | 
26 | O=C(COc1ccc2cc(-c3ccccc3)c(=O)oc2c1)NCC1CCC(C(=O)O)CC1 (stereo unspecified) | active: 6.01 µM | 
27 | O=C(CNc1ccc2ccccc2c1)N/N=C/c1cc2ccccc2nc1Cl | active: 15.1 µM | 
28 | Cc1ccc(C(=O)Nc2ccc(C(=O)/C=C/c3cccs3)cc2)cc1 | active: 12 µM | 
29 | Nc1c(C(=O)Nc2ccc(F)cc2)sc2nc(-c3ccco3)ccc12 | inconclusive: 13.5 µM [inhibitor, partial curve] | 
30 | C=CCn1c(SCC(N)=O)nc2scc(-c3ccc(C)o3)c2c1=O | active: 4.78 µM | 
31 | COc1ccc(S(=O)(=O)/N=C2/C=CC(=O)C(C)=C2C)cc1 | inconclusive: 37.9 µM [inhibitor, partial curve, poor fit] | 
32 | CC1CCC(NC(=O)C2CC(=O)N(c3ccc(Cl)cc3)C2)CC1 (stereo unspecified) | inconclusive: 37.9 µM [inhibitor, partial curve, poor fit] | 
33 | O=C(NCc1cccs1)c1cc(-c2cccs2)on1 | inconclusive: 3.01 µM [inhibitor, partial curve] | 
34 | COc1ccc(Cl)cc1C(=O)NC(=S)Nc1cc(-c2nc3ccccc3[nH]2)ccc1C | inconclusive: 10.7 µM [inhibitor, partial curve] | 
35 | O=C(Nc1cccc([N+](=O)[O-])c1)Nc1ccc2c(c1)CCC2 | inconclusive: 4.26 µM [inhibitor, partial curve] | 
36 | COc1ccc(S(=O)(=O)N2CC(C)N(C(=O)N(C)C)C2C(C)C)cc1 (stereo unspecified) |  | inactive: -1.47%
37 | Cc1ccc(NC(=O)c2cnc(SCC(=O)c3ccccc3)n(C)c2=O)cc1 | inconclusive: 30.1 µM [inhibitor, partial curve, poor fit] | 
38 | COc1cc2cc(C#N)c(SCC(=O)Nc3cc(C)on3)nc2cc1OC |  | inactive: 4.8%
39 | CNC(=O)CSc1ncnc2c1cnn2-c1ccccc1 | inconclusive: 37.9 µM [inhibitor, partial curve, poor fit] | 
40 | CCCCc1nc2sc3c(SCCN(C)C)ncnc3c2c2c1CCC2 | inconclusive: 21.3 µM [inhibitor, single point] | 
41 | CCc1ccc(C(=O)/C=C2\Sc3ccccc3NC2=O)cc1 | active: 13.5 µM | 
42 | Cc1nc2c(c(=O)n1Cc1ccccc1Cl)c1nc3ccccc3nc1n2Cc1ccco1 | inconclusive: 26.9 µM [inhibitor, partial curve, poor fit] | 
43 | CC(C)c1ccc(NC(=O)c2cc(S(=O)(=O)NCC3COc4ccccc4O3)ccc2F)cc1 (stereo unspecified) | inconclusive: 26.9 µM [inhibitor, partial curve, poor fit] | 
44 | O=C(O)c1ccc(Cn2cnc3sc4c(c3c2=O)CCCC4)cc1 | inconclusive: 23.9 µM [inhibitor, single point] | 
45 | COC(=O)c1ccc(-c2noc(CN(C)CCC3CCCCO3)n2)cc1 (stereo unspecified) | inconclusive: 5.36 µM [inhibitor, partial curve] | 
46 | COc1ccc(NC(=O)Cc2csc(NC(=O)Nc3ccccc3OC)n2)c(OC)c1 | inconclusive: 21.3 µM [inhibitor, partial curve, poor fit] | 
